{
  "source": "paper PMC12136788",
  "binders": {"B1": {"name": "chr7:20150648:20150649:-_ENSMUSG00000044709_ENSMUST00000117222|mus_hu|motif|central (ssRNA)", "RNA": "GGGAGUUCUACAGUCCGACGAUCCUUGAAGGUAUAUGAAAUAAUGUCACUACAUCGGAGCAGCGCCUCUGCUUGCACACCGGUGGGAGUCUGCAGCUGUGACACGUAGAAGUUGGCCACAUCCAGGUCGGUGGCUCCAAAGUGCAACAGAGGAUUGAGCAUCA"}, "B2": {"name": "143153144_143153264_2571_3pUTR_ENSMUSG00000030275_ENSMUST00000032413|mouse|control|control (ssRNA)", "RNA": "GGGAGUUCUACAGUCCGACGAUCAGCACUUAUGUGACCAAAGUGCAAAGCCUGUCUGACUAAUCUAAGUAAAGUUACCCCUGACUGCUCAACCCACAGAGCAGUCUUCAAAGAUUAAAGCCUUCUUGUCUACCUCAAAGACCUCAACAGAGGAUUGAGCAUCA"}, "B3": {"name": "46694385_46694505_3160_3pUTR_ENSG00000069329_ENST00000568784|human|control|control (ssRNA)", "RNA": "GGGAGUUCUACAGUCCGACGAUCAAAGGAUGAGACCUUCAUAAAUUGGCCCCUCGGAUUCUGGUGAUUCCCGCCGCAAGCGCAAAUGCUCCAGUGUGUUAUGAAAAUGUUUGUUAAUCUGCUCUGUUUCUUCACUGGAUUCAACAACAGAGGAUUGAGCAUCA"}, "B4": {"name": "chr4:134969704:134969705:-_ENSMUSG00000059713_ENSMUST00000030606|mus_mus|motif|central (ssRNA)", "RNA": "GGGAGUUCUACAGUCCGACGAUCACUCCCAUGGUUUAAUUAUGCGUAAAGCUUUCCUCUGAAAACCAAAUCCUCCAGUCGGAAAAUAGUUUACAUAAAAAUAUAAAGCCCAGGCCCACCGUUAGUCUGGAAUAGAACUUGAUUCAACAGAGGAUUGAGCAUCA"}, "B5": {"name": "53597998_53599450_495_3pUTR_ENSG00000023287_ENST00000025008|human|control|control (ssRNA)", "RNA": "GGGAGUUCUACAGUCCGACGAUCCAGUGUUAACCAGAAAUACAUAUAACUUCAUGAUGAUUUAUCUGAAUUCUGUGAGCUUAUACCUCACCCUCUGAUACAGUUACGUCAGGCACUGUGAAAAGGACUACCACUUUUCUUAAACAACAGAGGAUUGAGCAUCA"}, "B6": {"name": "chr14:90871201:90871202:+_ENSG00000198668_ENST00000553542|hu_mus|FALSE|FALSE (ssRNA)", "RNA": "GGGAGUUCUACAGUCCGACGAUCCGACCAAUACAUGCAGACUUUGUGUGUGGACAGAGGGGCUUCUGACAUUCAGCUUCGCUAGAUACAAACAGAAUGAAGAAAUGAACUUUUUCUUUUUUUUUCUUUUUUUUGUAAGAGGUACAACAGAGGAUUGAGCAUCA"}, "B7": {"name": "chr9:88289291:88289292:-_ENSMUSG00000032422_ENSMUST00000140439|mus_mus|FALSE|FALSE (ssRNA)", "RNA": "GGGAGUUCUACAGUCCGACGAUCUCCUUCUUCUCUUUCCUUUCAGAGGAGGGAUCUUCAAAAAAGUCUACAUACGGAAUGCUAAUUUUCCAGGCAGCAAGGUUUCGAGGAGUGUUAGGUGUGCUCACAGCUUCUACUGGAGAGCAACAGAGGAUUGAGCAUCA"}, "B8": {"name": "chr14:35777207:35777208:+_ENSG00000100902_ENST00000261479|hu_hu|motif|central (ssRNA)", "RNA": "GGGAGUUCUACAGUCCGACGAUCUUUGUCAGGUACUUUCUUCUGUGUGACAAUUACUGCACAGUCUUUCCCUCUGACAGCGGCUGAUGUAAGGCCACCCUGGUUAAUAGCCUUAAAAGCAUAUUCUACUUGGUAGAGCCGACCCAACAGAGGAUUGAGCAUCA"}, "B9": {"name": "chr14:59836542:59836543:+_ENSMUSG00000035469_ENSMUST00000043227|mus_mus|FALSE|FALSE (ssRNA)", "RNA": "GGGAGUUCUACAGUCCGACGAUCCCAAGCAAAUAACUCUCCAUCAGCUGCUAAAGCCAUCGAAUGAUGUGAACCACAAGCUACUUCAAUCACCUGCUUGAUCAAGAGAUUAGUACAGACUUGGACAGGAGCAAUGCCUUGGUUCAACAGAGGAUUGAGCAUCA"}, "B10": {"name": "154938479_154938680_1490_3pUTR_ENSG00000160691_ENST00000448116|human|control|control (ssRNA)", "RNA": "GGGAGUUCUACAGUCCGACGAUCACCACCCACUGCUUGCCGGGCCUUGUCUAGGUUCUGGACGUUGACAUAGGAGGGAUCAUCAAAAAGCUCUCUGCCUGCUGGACAGGGUGGUGGAGGUGGCAUCUGUUUGCGGACUUCUGGCAACAGAGGAUUGAGCAUCA"}, "B11": {"name": "113244221_113245190_541_CDS_ENSG00000155366_ENST00000369637|human|control|control (ssRNA)", "RNA": "GGGAGUUCUACAGUCCGACGAUCGGCCAUCUCAAACACCUCCCGCACUCCCUCCUUGGUCUUGGCUGAGCACUCAAGGUAGCCAAAGGCACUGAUCCGGUUCGCCAUGUCCCGGCCUUCCUCAGACCGAACGGGCUCCUGCUUCAACAGAGGAUUGAGCAUCA"}, "B12": {"name": "chr4:124478334:124478335:+_ENSMUSG00000028894_ENSMUST00000094782|mus_mus|motif|central (ssRNA)", "RNA": "GGGAGUUCUACAGUCCGACGAUCGGCUGAAUAAGGCAAAGUACAGUUACUUAAAACUUUUAAAUAAAAAUGAAUAGGGAGCGGUUUGUGUUAAAUAACUAGAGUUGAAUGUGGAACGUCAGUUCUACUAUGGUGGAUUGCCCCCAACAGAGGAUUGAGCAUCA"}, "B13": {"name": "chr7:127231458:127231459:+_ENSG00000004059_ENST00000000233|hu_hu|FALSE|FALSE (ssRNA)", "RNA": "GGGAGUUCUACAGUCCGACGAUCCAGGCUCCAACAACAGAGAGAACAUGCAGGCAGGAGCAGGAGCAGAGGCCUGUGGCUAUGGGGGAGGAAAAGUGGGAGGAAAGGGCACUGCCUGAGGAGUCCGGGAGUCUGGUCAUCCCGCAACAGAGGAUUGAGCAUCA"}, "B14": {"name": "chr3:31678068:31678069:+_ENSG00000163527_ENST00000295770|hu_mus|FALSE|FALSE (ssRNA)", "RNA": "GGGAGUUCUACAGUCCGACGAUCUCUUCACACCGGAGAAACAGGAAAAUAAAUAGAGUUCCCAGACGUAGACUCUCCUUUAGCACGUCUCUCUCAGACCUGGGCUAGUUUGUUUACUGGUCAAGAAGCUCUCAUCACAUCUGCCAACAGAGGAUUGAGCAUCA"}},
  "note": "This is one part of the list.",
  "data": [
    {"target": "T1, UNK ZnF1-3 (human, UniProt Q9C0B0 31-174)", "T1 sequence": "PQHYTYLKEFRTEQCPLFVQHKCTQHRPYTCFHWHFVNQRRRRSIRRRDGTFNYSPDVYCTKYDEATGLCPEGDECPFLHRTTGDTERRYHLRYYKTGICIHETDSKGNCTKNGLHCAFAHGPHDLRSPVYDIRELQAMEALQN", "assay": "nsRBNS (natural sequence RNA bind-n-seq); RBNS binding buffer (assumed for nsRBNS): 25 mM Tris pH 7.5, 150 mM KCl, 3 mM MgCl2, 0.01% Triton X-100, 500 ug/ml BSA, 20 U/ml SUPERase-In, 4 C; UNK is unkempt and MSI1 is Musashi-1; names of the RNAs are library labels; protein concentration not given here; high values mean tight binding", "units": {"binding signal": "enrichment R"}, "values": [
      {"binder": "B1", "binding signal": 0.98},
      {"binder": "B2", "binding signal": 1.35},
      {"binder": "B3", "binding signal": 1.23},
      {"binder": "B4", "binding signal": 1.39},
      {"binder": "B5", "binding signal": 0.899},
      {"binder": "B6", "binding signal": 2.35},
      {"binder": "B7", "binding signal": 1.27},
      {"binder": "B8", "binding signal": 0.541},
      {"binder": "B9", "binding signal": 1.06},
      {"binder": "B10", "binding signal": 1.58},
      {"binder": "B11", "binding signal": 1.21},
      {"binder": "B12", "binding signal": 2.62},
      {"binder": "B13", "binding signal": 2.13},
      {"binder": "B14", "binding signal": 1.21}
    ]}
  ]
}
